# Experimental data: the supplement of paper PMC3334620
# In all, about 33,000 sequences were measured (“E-score (-0.5 to 0.5)”: median about -0.021, highest 2% from about 0.32 on). The list shows a part of the results.
# Molecular target: T1, Zap1 (UniProt P47043)
# T1 sequence: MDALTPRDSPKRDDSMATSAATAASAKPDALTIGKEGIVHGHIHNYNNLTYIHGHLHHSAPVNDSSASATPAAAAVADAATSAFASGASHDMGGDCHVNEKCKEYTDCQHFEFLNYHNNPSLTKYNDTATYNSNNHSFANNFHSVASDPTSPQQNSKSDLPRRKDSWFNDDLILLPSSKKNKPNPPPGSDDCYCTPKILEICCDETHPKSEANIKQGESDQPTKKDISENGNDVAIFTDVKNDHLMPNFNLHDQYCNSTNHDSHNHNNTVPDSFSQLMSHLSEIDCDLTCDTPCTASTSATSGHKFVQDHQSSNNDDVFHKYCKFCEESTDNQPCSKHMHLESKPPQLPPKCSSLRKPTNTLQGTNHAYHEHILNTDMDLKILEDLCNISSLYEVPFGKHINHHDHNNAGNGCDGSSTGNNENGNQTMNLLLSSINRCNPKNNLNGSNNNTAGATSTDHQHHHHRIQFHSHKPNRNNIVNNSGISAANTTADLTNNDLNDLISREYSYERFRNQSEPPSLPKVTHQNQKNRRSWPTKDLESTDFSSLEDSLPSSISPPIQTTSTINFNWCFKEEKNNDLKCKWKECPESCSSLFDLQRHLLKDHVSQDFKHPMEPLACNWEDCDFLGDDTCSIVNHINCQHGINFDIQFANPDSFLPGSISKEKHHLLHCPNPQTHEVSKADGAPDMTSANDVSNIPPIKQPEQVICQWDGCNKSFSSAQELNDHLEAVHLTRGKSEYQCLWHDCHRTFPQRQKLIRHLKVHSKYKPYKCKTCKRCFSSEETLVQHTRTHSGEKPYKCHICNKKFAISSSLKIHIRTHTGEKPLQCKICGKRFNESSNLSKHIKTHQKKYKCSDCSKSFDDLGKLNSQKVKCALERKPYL
# Test: PBM E-score (8-mer binding enrichment) (E-score (-0.5 to 0.5)); higher = stronger / more preferred TF binding; most listed sequences are background and not binding sites
# Settings: protein concentration: 200 nM; construct: GST-full length
# Outline: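 Bound GST-tagged yeast transcription factors, applied at about 100-200 nM to double-stranded universal all-10-mer Agilent arrays, were detected with fluorescent anti-GST. Scans were normalised with masliner. A modified Wilcoxon-Mann-Whitney statistic, the E-score, was assigned to each ungapped eight-base word pooled with its reverse complement by the Universal PBM Analysis Suite.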
row,Sequence,PBM E-score
1,AATTGCCG,-0.248
2,GGCGGACA,-0.0625
3,GCCAGTTA,-0.11
4,AGTCGTAT,-0.19
5,CTTAAATA,0.0782
6,CGACCCTA,0.328
7,GGTGACCA,0.283
8,CCGATGCG,-0.217
9,GGCTTGGA,-0.31
10,CGGTACGA,0.057
11,ACCCATTA,0.224
12,GCGTATCC,-0.12
13,CGAACACG,-0.0862
14,CCCACGCG,0.00595
15,GTGCTTGA,-0.0867
16,CAAGTGTG,-0.0659
17,AAGGGGCT,-0.0319
18,ACCATAGG,0.212
19,CGAAGTCG,0.0486
20,GAGTTAGA,-0.133
21,AATAAAAA,0.172
22,GATGGTAA,0.171
23,GACAGAGA,-0.085
24,CGACGTCG,-0.103
25,GATTATCA,-0.0633

row,Sequence,PBM E-score
1,AGTTGGCG,-0.202
2,AGGTAGCA,0.123
3,ACATGCTA,-0.226
4,CGAAGCCG,-0.168
5,AGAGTCAA,-0.102
6,AGCAATAT,0.0713
7,GGTAATAA,0.338
8,CTAATTAC,0.0995
9,ATGTACGG,-0.0798
10,CTTGTGGA,0.115
11,CATGGGAA,-0.0139
12,AAGGAGAC,-0.286
13,CGCGTTTA,-0.0657
14,ACTAAAGG,0.275
15,ATTCACAA,0.254
16,CCCCTTCC,-0.055
17,CGCACGCG,-0.166
18,GAATGGGC,-0.098
19,CAGAGCAC,-0.127
20,GGGGGCAC,-0.149
21,GATCTGGC,-0.121
22,ATCGGTGG,0.0296
23,ATCCGATG,-0.0642
24,ACCCATCA,0.228
25,AGGGCCCA,-0.127

row,Sequence,PBM E-score
1,AACTGGCT,-0.31
2,CGAAGGCC,-0.133
3,AGAGCGGG,-0.0654
4,AATAAATC,-0.103
5,CCTAATCC,-0.00347
6,AAAAGGCG,-0.138
7,GATAAGGC,-0.231
8,GAGTTGAA,-0.134
9,GTCCCCTA,0.12
10,CTTCCCGC,-0.208
11,CATACGAA,0.107
12,AGTGAACT,-0.00558
13,GGTTTGAC,0.0472
14,CGTAGAAG,-0.141
15,ATACGTGG,-0.199
16,TAAATCCA,-0.0221
17,CTTCATTC,-0.104
18,ACTACGAC,-0.0282
19,ATATCTGG,-0.138
20,CTCCGCAG,-0.0403
21,CTCGCTCA,0.0112
22,GCATATAA,0.0856
23,CTGCCTTA,-0.356
24,ATCGGATA,0.103
25,CACATTGC,-0.0466

row,Sequence,PBM E-score
1,CACCCTAC,0.328
2,CTGGCGCC,-0.227
3,CGTGATCC,-0.14
4,CTGAGCTC,-0.0991
5,CCCTAAAG,0.247
6,CGGGGAGA,-0.204
7,TACCAGGA,0.206
8,AACCTCAG,0.205
9,AAGCAAGG,0.141
10,ATGTAGCA,-0.244
11,TAAAGTCA,0.0993
12,CAAAAGAC,0.0415
13,AGAATCGG,-0.111
14,CAAGGCCC,-0.113
15,TTAGTGAA,0.0447
16,ACTATATG,-0.0676
17,GAGGATGC,-0.169
18,GATGCCCA,-0.107
19,CGCAAAAG,-0.105
20,TATTGCAA,0.249
21,CGTACCTA,-0.117
22,AGGGGAAT,0.004
23,GGAAGCAC,-0.125
24,CATATCCC,-0.0103
25,CGACTCAC,-0.178

row,Sequence,PBM E-score
1,CTTAGAGA,-0.0526
2,CTAGAGAA,0.014
3,GCCTTTCC,-0.132
4,GCATATCA,-0.0474
5,AAACCAAT,0.19
6,GCGTTAAA,0.089
7,GGAAACCC,0.293
8,GGGGAGAC,-0.235
9,AACGTATT,-0.139
10,AGCAGTAT,0.0154
11,CAACATGA,0.146
12,CAGCTAAA,0.0244
13,CTTCACGC,-0.0117
14,CACAGTGC,-0.183
15,CTCCCGAA,-0.34
16,ATCCACTA,0.0706
17,AAAATGCA,-0.0432
18,AACTCAGA,0.157
19,CCTTTCCG,0.122
20,AACGTGAT,-0.0982
21,CCATGGCG,0.0904
22,CCGATTGA,0.123
23,AGACGCCC,0.0172
24,AAATTTTA,0.121
25,GCGCCACA,-0.0206

row,Sequence,PBM E-score
1,CCAAAATC,0.123
2,ATGTGCCA,-0.0682
3,CCTATCCC,0.121
4,AATTACAG,0.0745
5,CTTAAAGC,0.0143
6,ATCCTGAG,-0.0542
7,CCACTGGA,-0.115
8,CCTCAACA,0.0925
9,TCCCAACA,0.0262
10,CGCTCAAG,-0.0493
11,CGAAGCAA,-0.00093
12,ACCCAGTC,-0.039
13,CACACTGC,-0.158
14,CAGTTCCA,0.164
15,AGTCCTAT,-0.0607
16,GGACTTAA,-0.108
17,CGAACCAA,0.183
18,AAAGTTCG,0.105
19,AAAATCAC,0.0718
20,CCCGCGAG,0.0782
21,AAGGTGAA,0.068
22,AGTCAAGA,-0.161
23,AACCGTAG,0.0762
24,ATTTGCTA,0.0307
25,AAAATTTT,0.108

row,Sequence,PBM E-score
1,GTAGAAAC,0.0301
2,CGAAAAAA,0.237
3,ATCCCAGC,-0.131
4,CTTACCTC,0.0904
5,ACGCTGCG,-0.199
6,CAAGGCCG,-0.00033
7,AAGTAGTC,-0.0936
8,CGCTGCAG,0.0248
9,TCAGAGGA,-0.107
10,AGCCACTC,-0.23
11,GGCATAGA,-0.0663
12,GATGTTAC,-0.0218
13,CCGTTTCC,-0.101
14,CGTCCCTC,-0.171
15,AAGTGGCT,-0.0519
16,GCAGACTA,-0.222
17,CATGTTCG,0.0797
18,TAACGTGA,-0.124
19,CCGAAAGC,-0.0793
20,GGGATGGA,-0.254
21,ATTGCATG,-0.0435
22,GCTTTGTA,0.149
